Source: PubChem BioAssay AID1645887 (National Center for Advancing Translational Sciences (NCATS), 2021)
Several values for one entry are separate records, joined by “and”; a condition that tells them apart may be missing. Equal values may be shown once. Among all 16,000 compounds or so, about 40 (0.2%) were called active. About 1% were inconclusive and are not listed. Calls follow the shape of the dose curve; as a rule, active = well fitted activation curve with a large enough effect; inconclusive = small, poorly fitted or top-dose-only effect, or another doubt; inactive = no such curve, though single readings can be large or run the other way. Some of the results follow.

molecular target: Rap guanine nucleotide exchange factor 4 (Homo sapiens) (UniProt Q8WZA2); experiment: Validation qHTS for agonist of cAMP-regulated guanine nucleotide exchange factor 4 (EPAC2); settings: EPAC2 Rap1B BODIPY-GDP exchange, fluorescence; activation: hits give high values;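 also: exchange makes BODIPY-GDP fluorescence drop when released from Rap1B; series mostly up to about 150 µM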
UniProt Q8WZA2, sequence (Q8WZA2 whole entry, looked up): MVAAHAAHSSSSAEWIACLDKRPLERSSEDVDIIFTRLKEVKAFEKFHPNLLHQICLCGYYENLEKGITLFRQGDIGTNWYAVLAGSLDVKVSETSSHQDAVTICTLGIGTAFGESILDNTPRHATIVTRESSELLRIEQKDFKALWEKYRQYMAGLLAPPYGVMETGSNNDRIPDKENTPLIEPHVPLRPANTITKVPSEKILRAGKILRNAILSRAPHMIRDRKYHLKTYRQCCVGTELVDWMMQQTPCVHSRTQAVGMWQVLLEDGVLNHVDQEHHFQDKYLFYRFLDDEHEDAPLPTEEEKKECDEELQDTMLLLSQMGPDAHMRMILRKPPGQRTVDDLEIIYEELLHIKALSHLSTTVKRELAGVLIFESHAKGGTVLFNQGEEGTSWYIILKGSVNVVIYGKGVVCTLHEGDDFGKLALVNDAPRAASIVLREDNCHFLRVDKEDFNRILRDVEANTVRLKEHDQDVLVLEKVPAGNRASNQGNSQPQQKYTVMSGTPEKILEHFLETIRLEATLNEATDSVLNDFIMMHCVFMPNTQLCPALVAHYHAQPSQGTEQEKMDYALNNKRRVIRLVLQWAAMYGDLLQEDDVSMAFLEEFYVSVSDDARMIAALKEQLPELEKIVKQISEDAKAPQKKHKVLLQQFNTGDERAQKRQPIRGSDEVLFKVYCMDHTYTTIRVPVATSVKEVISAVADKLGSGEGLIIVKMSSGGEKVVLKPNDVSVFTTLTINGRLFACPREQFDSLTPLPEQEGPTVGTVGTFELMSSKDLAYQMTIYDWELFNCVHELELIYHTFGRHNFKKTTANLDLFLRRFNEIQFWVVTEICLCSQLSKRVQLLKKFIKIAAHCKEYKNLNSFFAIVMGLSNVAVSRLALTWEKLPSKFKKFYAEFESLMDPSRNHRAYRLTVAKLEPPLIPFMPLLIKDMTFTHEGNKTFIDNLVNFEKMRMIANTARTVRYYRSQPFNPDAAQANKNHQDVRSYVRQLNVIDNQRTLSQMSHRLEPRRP
Outline: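 Fluorescent exchange assay: 100 nM EPAC2 with 250 nM RAP1B-BODIPY-GDP and 50 uM GDP; compound added, 5 min at room temperature, then read (ex 480/em 540 nm) every 5 min for 30 min. Normalized to 6.5 mM cAMP agonist control.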
% is scaled to controls: 0 for no effect and ±100 for the full control effect.

activation, inactive:
Cc1cc(O)c2c(c1O)C(=O)C(O)=C(O)C2=O -12.3%
Cn1c(=O)c(-c2cc(F)cc(F)c2)nc2cnc(Oc3cccc(Cl)c3)nc21 10.1%
C[C@@]12C(=O)OC(=O)[C@@]1(C)C1CCC2O1 -23.5%
COCCn1c(=O)c(C)nc2cnc(Oc3cccc(Cl)c3)nc21 -12.3%
O=C(c1csnn1)N1CCC2(CCCN(c3ccccn3)C2)CC1 5.52%
Cn1c(=O)c2[nH]cnc2n(C)c1=O -4.75% [middle of 5 runs]
CS(=O)(=O)c1ccc(C2=C(c3ccccc3)C(=O)OC2)cc1 5.43%
O=C(OCC1(COC(=O)c2cccnc2)CCCC(COC(=O)c2cccnc2)(COC(=O)c2cccnc2)C1O)c1cccnc1 -5.76%
Oc1ccc(Cl)c2c1CCC2 -23.7%
CC(C)[C@@H](CSc1ccccc1)N1CCN(Cc2ccccc2)CCC1=O -13.2%
CC1=C(C(N)=O)N2C(=O)[C@@H](NC(=O)Cc3ccccc3)C2SC1 (stereo partly drawn) 7.45%
COC1C[C@@H](O[C@@H]2C(C)C(=O)OC(C)C(C)[C@H](OC(C)=O)C(C)C(=O)[C@@]3(CO3)CC(C)C(OC3OC(C)CC(N(C)C)[C@H]3OC(C)=O)C2C)OC(C)[C@@H]1OC(C)=O (stereo partly drawn) -11.2%
Cn1cccc1C(=O)N1CCC2(CCCN(C(=O)Nc3cccc(C#N)c3)C2)CC1 -24.1%
Cc1cnc(-n2ncc(C(=O)NCCc3ccncc3)c2-c2cccs2)nc1-c1ccc(F)cc1 2.42%
C/C=C(\C)C(=O)O[C@H]1CC(C)=C2C(=O)C=C(C)C2[C@@H]2OC(=O)[C@@](C)(OC(=O)C=C(C)C)C21 (stereo partly drawn) -12.5%
CC(C)[C@H](CO)Nc1nc(Nc2cccc(Cl)c2)c2ncn(C(C)C)c2n1 0.823%
CCCNC(=O)[C@H]1O[C@@H]1C(=O)N[C@H](C(=O)N1CCC[C@H]1C(=O)OC)[C@@H](C)CC 1.19%
O=c1c2ccccc2oc2ccc(-c3ccoc3)cc12 -9.01%
COc1ccc(CCNC[C@H](O)c2ccc(O)cc2)cc1OC -8.14%
O=c1c(-c2cc(F)cc(F)c2)nc2cncnc2n1C1CC1 0.67%
C#C[C@]1(O)CC[C@H]2[C@@H]3CCc4cc(OC5CCCC5)ccc4[C@H]3CC[C@@]21C -28%
O=C(c1cc(C(F)(F)F)cc(C(F)(F)F)c1)N1CCC2(CC1)CN(c1ncccn1)C2 -30.5%
CN(C)CCC=C1c2ccccc2CCc2ccccc21 -8.63% and 7.74% and -19.1%
COc1ccc2c(c1)-c1nc(-n3ncc(C(=O)N(C)C(C)c4ccon4)c3C3CC3)ncc1CC2 (stereo not drawn) -3.51%
Cc1ccnc2c1NC(=O)c1cccnc1N2C1CC1 -0.816%
CN(CCc1ccc(Cl)c(Cl)c1)CCN1CCCC1 -2.2% and 7.59%
CC1=CC(=O)CC(C)(C)C1(O)/C=C/C(C)=C/C(=O)O (stereo not drawn) -22.8%
O=S(=O)(c1ccccc1)N1CCC2(CC1)CN(c1ccncc1)C2 -7.03%
CN1CCN(c2ncncc2-c2ccccc2C(F)(F)F)CC1 -5.22%
CC(=O)N1CCC2(CC1)CCN(c1cccc(-c3ccccc3)c1)CC2 7.44%
NC(=O)C(=O)O -5.52%
O=c1c(-c2ccc(F)cc2)nc2cnc(Oc3cccc(Cl)c3)nc2n1C[C@H]1CCCO1 10.2%
CN(C)C(=O)c1ccc(-c2nc(Nc3ccncc3)c3ccccc3n2)cc1 -3.3%
Cc1nc(NCc2c(F)cccc2F)sc1-c1ccn(CCN2CCOCC2)n1 -13.4%
CC(C)C(NS(C)(=O)=O)c1nnc2n1CCN(Cc1ccc(Cl)cc1)CC2 (stereo not drawn) -24.3%
CN(C)c1ncc2nc(CCc3ccccc3)c(=O)n(Cc3cccs3)c2n1 14.8%
CC1CC[C@@]2(C(=O)O)CCC3(C)C(=CCC4[C@]5(C)CC(O)C(O)[C@](C)(CO)C5C(O)C[C@@]43C)C2C1C (stereo partly drawn) -57.9%
O=C(c1cccc(F)c1)N1CCC2(CCCN(c3ccncc3)C2)CC1 9.07%
COc1cc(OC)c(OC)cc1CN1CCCC(c2nc(C)ncc2-c2ccc(F)cc2)C1 (stereo not drawn) -4.08%
O=C(C[n+]1csc2ccccc21)c1cccc([N+](=O)[O-])c1 -5.24%
O=C(c1ccncc1)N1CCC[C@@]2(CCN(c3ccccn3)C2)C1 -0.98%
O=C(NCCc1nnc2n1CCN(Cc1cc3ccccc3o1)CC2)c1ccoc1 -25.3%
OC(Br)C(O)C(O)N1CCCc2ccccc21 (stereo not drawn) -9.29%
C=CCc1ccc(OC(=O)c2ccccc2)c(OC)c1 1.58%
O=S1(=O)CCO[C@H]2Cc3ccccc3[C@H]2N1Cc1ccccc1 -27.7%
OC[C@H]1O[C@@H](n2cnc3c(=S)nc[nH]c32)[C@H](O)[C@@H]1O -8.98%
COc1cc(-c2ccc(N=Nc3ccc4c(S(=O)(=O)O)cc(S(=O)(=O)O)c(N)c4c3O)c(OC)c2)ccc1N=Nc1ccc2c(S(=O)(=O)O)cc(S(=O)(=O)O)c(N)c2c1O -15.2% and -10.5%
CCN(CC)CCOC(=O)C(c1ccccc1)C1CCCCC1 (stereo not drawn) -1.91%
CN(C)c1cc2c(Nc3ccc4c(cnn4Cc4ccccc4)c3)ncnc2cn1 1.6%
COc1ccccc1-c1ccnc(-n2ncc(C(=O)NCc3cccnc3)c2C)n1 8.95%
CN(C)C(=O)c1ccc(-c2cncnc2-n2ccnc2)cc1 -14%
Cc1nc2cnc(Oc3ccccc3)nc2n(CCC#N)c1=O -2.69%
COCCN1CCN(C(=O)c2cnn(-c3nccc(-c4ccco4)n3)c2C2CC2)CC1 -4.01%
COCC1=C(C(=O)OC(C)OC(=O)OC(C)C)N2C(=O)[C@@H](NC(=O)/C(=N\OC)c3csc(N)n3)[C@H]2SC1 (stereo partly drawn) -9.12% and -2.29%
COc1cc(=O)n2c(c1C(=O)NCc1ccc3c(c1)OCO3)CCN(C(=O)c1ccc(C)cc1)CC2 -9.24%
O=C(CCc1nc2ccccc2s1)N1CCOc2ccc(CN3CCc4sccc4C3)cc2C1 -8.66%
CO[C@H]1[C@H](NC(=O)c2ccco2)c2ccccc2C12CCN(Cc1cc(Cl)ccc1O)CC2 4.23%
COc1ccc(-c2nc3cnc(Nc4cccc(OC)c4)nc3n(CCC#N)c2=O)cc1 -13.7%
N#CC(=C(/N)Sc1ccccc1N)/C(C#N)=C(/N)Sc1ccccc1N -17.7%
COc1cc([C@@H]2c3cc4c(cc3[C@H](O)C3COC(=O)[C@@H]32)OCO4)cc(OC)c1OC (stereo partly drawn) -45.8%
CC(C)(C)c1ccc(CN2CCN(C(c3ccccc3)c3ccc(Cl)cc3)CC2)cc1 (stereo not drawn) -8.25%
COC(=O)[C@@H]1CCCN1Cc1ccc2c(c1)CN(Cc1cccc(Cl)c1)CCO2 3.23%
CCCN1CCC(=O)N([C@H](COc2ccccc2)Cc2ccccc2)CC1 -1.32%
NS(=O)(=O)c1cccc2c1c([N+](=O)[O-])cc1nc(O)c(O)nc12 -21.1% and -17%
O=C(c1ccncc1)N1CCC[C@@]2(CCN(c3cccc(-c4ccccc4)c3)C2)C1 -7.28%
N#Cc1cccc(-c2nccc(NCc3cccnc3)n2)c1 -7.06%
COc1cccc2c1CCC1=CC(=O)CC[C@@]12C -9.3%
C=CC(=O)c1ccc2ccccc2c1 -3.99%
C=CCOc1ccc(CC(=O)O)cc1Cl 14.9%
O=[N+]([O-])c1ccc(Cn2cc(-c3cccc(C(F)(F)F)c3)nn2)cc1 -16.8%
COC(=O)C1=C(C)NC(C)=C(C(=O)O[C@H]2CCN(Cc3ccccc3)C2)[C@H]1c1cccc([N+](=O)[O-])c1 10.6%
Cc1c(C(=O)NCCc2cccnc2)cnn1-c1ncc2c(n1)-c1ccccc1CC2 -14.5%
O=C(NCc1nnc2n1CCN(C(=O)/C=C/c1ccccc1)CC2)c1cccc(F)c1 -12%
NC(N)=NCc1cccc(I)c1 -3.03% and 7.83%
CCCCC(CC)CN1CN(CC(CC)CCCC)CC(C)(N)C1 (stereo not drawn) -8.76% and -19.9%
Cc1cccc(CN2CCc3nnc(C(C)NC(=O)C4CCOCC4)n3CC2)c1 (stereo not drawn) -11.5%
COc1cc2c(cc1OC)C(=O)C(CC1CCN(Cc3ccccc3)CC1)C2 (stereo not drawn) 9.64%
CC(=O)OCC(=O)[C@@]1(O)CCC2C3CC(C)C4=CC(=O)C=CC4(C)C3C(O)CC21C (stereo partly drawn) -21.4%
CCCCCC[C@@H](CCC)C(=O)O -8.38%
COCC(=O)Nc1cc(C(=O)N2CCN(c3ccccc3)C(=O)C2)cc2nc(-c3ccccc3)n(C)c12 -13%
C[C@H]1CCC(=O)N([C@H](CSc2ccccc2)Cc2ccccc2)CC1 -16%
O=C(Nc1cccc(F)c1)N1CC2(CCN(C(=O)c3ccco3)CC2)C1 -5.74%
Nc1ncnc2nc(Cl)[nH]c12 -7.47%
